Experimental data from the supplement of paper PMC4967469.

Columns and labels:
Assay in all cases: Viability of human cancer cell lines after 72 h of drug (GDSC screen)
[1] = compound: CC(C)[C@H](C(=O)Nc1ccc(C(=O)NO)cc1)c1ccccc1 [AR-42]; conditions: top dose 5.12 µM; top dose inferred
Experimental: (§1)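 Human cancer cell lines in 384-well plates, medium with 10% serum, drug for 72 h over a 256-fold dose range (nine 2-fold or five 4-fold steps up to the top dose). Adherent lines were fixed and stained with the nucleic acid dye Syto60, suspension lines read with resazurin; signal relative to control wells, capped at 0 and 100%. One two-parameter sigmoid per drug and line, fitted in a mixed model over all curves with the slope shared within a line.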

[2] = compound: CS(=O)(=O)N1CCN(Cc2cc3nc(-c4cccc5[nH]ncc45)nc(N4CCOCC4)c3s2)CC1 [GDC0941]; conditions: top dose 4 µM; screen: GDSC drug entry 1527; top dose inferred
Experimental: as §1

[3] = compound: Cc1ccc(Nc2nccc(N(C)c3ccc4c(C)n(C)nc4c3)n2)cc1S(N)(=O)=O [Pazopanib]; conditions: top dose 8 µM
Experimental: as §1

[4] = compound: Cn1cc(C2=C(c3ccc(Cl)cc3Cl)C(=O)NC2=O)c2ccccc21 [SB 216763]; conditions: top dose 10 µM; top dose inferred
Experimental: as §1

[5] = compound: C[C@]12O[C@H](C[C@]1(O)CO)n1c3ccccc3c3c4c(c5c6ccccc6n2c5c31)CNC4=O [CEP-701]; conditions: top dose 2 µM; top dose inferred
Experimental: as §1

Row | Cell Line | AUC [1] | IC50 [1] [nM] | AUC [2] | IC50 [2] [nM] | AUC [3] | IC50 [3] [µM] | AUC [4] | IC50 [4] [µM] | AUC [5] | IC50 [5] [nM]
1 | CAL-39 (cervix, adherent) | 0.718 | 1360 | 0.637 | 606 | 0.985 | > 8 | 0.982 | > 10 | 0.7 | 466
2 | MKN28 (stomach, adherent) | 0.788 | 2300 | – | – | 0.959 | > 8 | 0.953 | > 10 | 0.904 | > 2000
3 | MKN45 (stomach, adherent) | 0.917 | > 5120 | – | – | 0.983 | > 8 | 0.962 | > 10 | 0.785 | 1100
4 | NCI-H28 (mesothelioma, adherent) | 0.916 | > 5120 | – | – | 0.976 | > 8 | 0.916 | > 10 | 0.706 | 580
5 | NCI-H64 (small cell lung carcinoma, suspension) | 0.45 | 243 | – | – | 0.986 | > 8 | 0.996 | > 10 | 0.78 | 616
6 | NCI-H460 (large cell lung carcinoma, adherent) | 0.951 | > 5120 | – | – | 0.99 | > 8 | 0.988 | > 10 | 0.487 | 116
7 | NCI-H647 (non-small cell lung carcinoma, adherent) | 0.562 | 476 | – | – | 0.94 | > 8 | 0.967 | > 10 | 0.715 | 526
8 | NCI-H838 (lung adenocarcinoma, adherent) | 0.649 | 844 | – | – | 0.965 | > 8 | 0.987 | > 10 | 0.695 | 452
9 | NCI-H1703 (lung adenocarcinoma, adherent) | 0.834 | 4400 | – | – | 0.839 | 7.25 | 0.981 | > 10 | 0.554 | 181
10 | NCI-H1734 (lung adenocarcinoma, adherent) | 0.601 | 625 | – | – | 0.985 | > 8 | 0.977 | > 10 | 0.733 | 625
11 | NCI-H1993 (lung adenocarcinoma, adherent) | 0.701 | 1420 | – | – | 0.93 | > 8 | 0.855 | > 10 | 0.97 | > 2000
12 | NCI-H2052 (mesothelioma, adherent) | 0.915 | > 5120 | – | – | 0.975 | > 8 | 0.979 | > 10 | 0.662 | 402
13 | NCI-H2110 (non-small cell lung carcinoma, adherent) | 0.516 | 354 | – | – | 0.985 | > 8 | 0.983 | > 10 | 0.713 | 510
14 | NCI-H2122 (lung adenocarcinoma, adherent) | 0.831 | 2960 | – | – | 0.912 | > 8 | 0.982 | > 10 | 0.84 | 1250
15 | NCI-H3122 (lung adenocarcinoma, adherent) | 0.549 | 436 | – | – | 0.834 | 5.43 | 0.987 | > 10 | 0.678 | 400
16 | OVKATE (ovary, adherent) | 0.638 | 994 | – | – | 0.954 | > 8 | 0.979 | > 10 | 0.939 | > 2000

Row | Cell Line | AUC [1] | IC50 [1] [nM] | AUC [2] | IC50 [2] [nM] | AUC [3] | IC50 [3] [µM] | AUC [4] | IC50 [4] [µM] | AUC [5] | IC50 [5] [nM]
17 | P12-ICHIKAWA (T-cell lymphoblastic leukaemia, suspension) | 0.314 | 111 | – | – | 0.974 | > 8 | 0.981 | > 10 | 0.651 | 294
18 | PA-1 (ovary, adherent) | 0.115 | 29.2 | – | – | 0.986 | > 8 | 0.993 | > 10 | 0.538 | 155
19 | PFSK-1 (medulloblastoma, adherent) | 0.655 | 890 | – | – | 0.971 | > 8 | 0.898 | > 10 | 0.894 | > 2000
20 | RH-41 (rhabdomyosarcoma, adherent) | 0.754 | 1470 | – | – | 0.954 | > 8 | 0.99 | > 10 | 0.892 | 1690
21 | RPMI-7951 (melanoma, adherent) | 0.576 | 512 | – | – | 0.951 | > 8 | 0.918 | > 10 | 0.554 | 174
22 | SK-MES-1 (lung squamous cell carcinoma, adherent) | 0.551 | 447 | – | – | 0.841 | 6.28 | 0.944 | > 10 | 0.386 | 59.1
23 | SK-OV-3 (ovary, adherent) | 0.529 | 393 | – | – | 0.815 | 5.9 | 0.978 | > 10 | 0.635 | 324
24 | SUP-B15 (lymphoblastic leukaemia, suspension) | 0.289 | 83.7 | – | – | 0.923 | > 8 | 0.986 | > 10 | 0.457 | 95.9
25 | SW48 (large intestine, adherent) | 0.598 | 595 | – | – | 0.859 | 6.58 | 0.92 | > 10 | 0.407 | 69.5
26 | SW1573 (lung adenocarcinoma, adherent) | 0.756 | 2310 | – | – | 0.973 | > 8 | 0.962 | > 10 | 0.774 | –
27 | SW1783 (glioma, adherent) | 0.673 | 918 | – | – | 0.981 | > 8 | 0.935 | > 10 | 0.843 | 1220
28 | TMK-1 (stomach, adherent) | 0.703 | 1240 | – | – | 0.961 | > 8 | 0.952 | > 10 | 0.71 | 511
29 | U-2-OS (osteosarcoma, adherent) | 0.428 | 200 | – | – | 0.892 | > 8 | 0.956 | > 10 | 0.454 | 92.7
30 | VMRC-MELG (melanoma, adherent) | 0.461 | 248 | – | – | 0.96 | > 8 | 0.979 | > 10 | 0.953 | > 2000
31 | VMRC-RCW (kidney, adherent) | 0.68 | 975 | – | – | 0.914 | > 8 | 0.981 | > 10 | 0.938 | > 2000

Lines with a small IC50 respond at low doses; a limit (>, <) means that the fit lies beyond the doses tested. AUC is the area under the same curve over the 256-fold range up to the top dose, as a fraction; it is 1 without any effect and falls as sensitivity rises. For part of these data: An inferred top dose was derived from the fitted curves, not read from the paper. For part of these data: An entry number marks a drug with two screens in the source, which often give different values.
